# Experimental data taken from PubChem BioAssay AID588453 (National Center for Advancing Translational Sciences (NCATS), 2011).
# The campaign covered roughly 390,000 compounds. About 4,000 (1%) were called active. The inconclusive results got no clear call from the source; some entries with a clear call stand among them for comparison. Calls follow the shape of the dose curve; as a rule, active = well fitted inhibition curve with a large enough effect; inconclusive = small, poorly fitted or top-dose-only effect; inactive = no such curve, though single readings can be large or run the other way. A potency beside an inconclusive call is a rough fit, not a confirmed value.
# Target: Thioredoxin reductase 1, cytoplasmic (Rattus norvegicus) (UniProt O89049)
# UniProt O89049, sequence (O89049 whole entry, looked up): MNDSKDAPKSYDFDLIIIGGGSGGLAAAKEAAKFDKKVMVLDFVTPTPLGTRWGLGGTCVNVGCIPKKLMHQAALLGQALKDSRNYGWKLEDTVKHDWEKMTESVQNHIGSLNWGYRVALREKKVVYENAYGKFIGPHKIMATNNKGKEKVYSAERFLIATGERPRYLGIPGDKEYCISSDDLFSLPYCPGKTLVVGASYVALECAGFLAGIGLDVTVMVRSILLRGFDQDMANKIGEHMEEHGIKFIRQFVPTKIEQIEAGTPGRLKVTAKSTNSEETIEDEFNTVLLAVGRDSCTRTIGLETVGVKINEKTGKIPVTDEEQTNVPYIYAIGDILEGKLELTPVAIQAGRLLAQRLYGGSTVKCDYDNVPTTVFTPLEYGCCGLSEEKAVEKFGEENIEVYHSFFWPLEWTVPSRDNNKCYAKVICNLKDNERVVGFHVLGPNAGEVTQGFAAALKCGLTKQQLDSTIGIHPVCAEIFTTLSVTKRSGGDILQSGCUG
# Assay: qHTS Assay for Inhibitors of Mammalian Selenoprotein Thioredoxin Reductase 1 (TrxR1): qHTS; also: nearly all actives have a fitted effect of over 65% in size
# Conditions: recombinant rTrxR1, NADPH fluorescence consumption, selenite substrate; series mostly up to 114 µM; activity change, negative = inhibition: at the top concentration
# Outline: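 Rat TrxR1 (90 nM in the dispensed reagent) was pre-reduced with 400 uM NADPH for 5 min at room temperature, then incubated with compound for 15 min. After 400 uM selenite was added, NADPH fluorescence (Ex 340/Em 450 nm) was followed for 8 min.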
# % is scaled to controls: 0 for no effect and ±100 for the full control effect; potency is read from the fitted curve at half-maximal effect; tags tell the direction and shape of the fitted curve.
Compound,Potency,"activity change, negative = inhibition"
COc1ccc(N2CCN(CC(=O)c3ccccc3)CC2)cc1,"inconclusive: 31.6 µM [inhibitor, partial curve]",
CCCCN(C(=O)c1ccc([N+](=O)[O-])o1)c1c(N)n(CC(C)C)c(=O)[nH]c1=O,"inconclusive: 50.1 µM [inhibitor, partial curve, poor fit]",
COc1c(F)c(F)c(C(=O)Nc2c(C)cc(Br)cc2C)c(F)c1F,"inconclusive: 39.8 µM [inhibitor, single point]",
NC(Cc1c[nH]c2ccc(OCc3ccccc3)cc12)C(=O)O (stereo unspecified),"inconclusive: 79.4 µM [inhibitor, partial curve]",
Cc1ccc(C(=O)COC(=O)COc2ccccc2[N+](=O)[O-])s1,"inconclusive: 79.4 µM [inhibitor, single point]",
C#CCN1C(C)=C(C(=O)OC)C(c2cccc([N+](=O)[O-])c2)C(C(=O)OCC)=C1C (stereo unspecified),"inconclusive: 26.7 µM [inhibitor, partial curve]",
c1ccc(-c2oc3ncnc(NCCCN4CCOCC4)c3c2-c2ccccc2)cc1,"inconclusive: 79.4 µM [inhibitor, single point]",
Cc1nn(C(C)(C)C)c(N)c1-c1ccccc1,"inconclusive: 89.1 µM [inhibitor, single point]",
Cc1ccc(S(=O)(=O)n2nc(OC(=O)c3cccc(F)c3)cc2N)cc1,"inconclusive: 22.4 µM [inhibitor, partial curve, poor fit]",
COC(=O)C1=C(C)N(c2cccc3ccccc23)C(=O)C1,active: 25.1 µM,
COc1ccc(CC(=O)NNC(=S)Nc2ccc(Br)cc2)cc1,"inconclusive: 39.8 µM [inhibitor, single point]",
CCn1c(SCC(=O)N/N=C/C=C/c2ccco2)nc2ccccc21,active: 44.7 µM,
COc1ccc(C2NC(C(=O)O)Cc3c2[nH]c2ccccc32)cc1OC (stereo unspecified),,inactive: -22.1% [at 57.1 µM]
CCc1ccccc1Nc1nn2c(=O)c3ccc(C(=O)NC(C)c4ccccc4)cc3nc2s1 (stereo unspecified),,inactive: 31.8%
C/C=C/C=C\C(=O)Nc1cccc(C2=NOC3(C2)C[C@@H](C(N)=O)N(C(=O)c2cc([N+](=O)[O-])cc([N+](=O)[O-])c2C)C3)c1 (stereo partly specified),active: 15.8 µM,
CC(C)(C)C1CCc2c(sc3nc(-c4cc5cc(Br)ccc5oc4=O)[nH]c(=O)c23)C1 (stereo unspecified),,inactive: 66.3%
COc1cccc(/C=N/NC(=O)c2[nH]c(C)c(C(=O)N/N=C/c3cccc(OC)c3)c2C)c1,"inconclusive: 79.4 µM [inhibitor, single point]",
CCOC(=O)/C(C#N)=C\C=C1C=CN(C)C=C1,"inconclusive: 35.5 µM [inhibitor, single point]",
OC(CNC1CCCC1)COc1ccc(-c2ccccc2)cc1 (stereo unspecified),,inactive: 25% [at 57.1 µM]
CSC[C@H](NC(=O)COc1cc2c(c3oc(=O)cc(C)c13)CCC(C)(C)O2)C(=O)O,"inconclusive: 89.1 µM [inhibitor, single point]",
C=CCSc1nc2sc(C)c(C)c2c(=O)n1CC=C,"inconclusive: 79.4 µM [inhibitor, single point]",
CCC1c2ccc(C)n2CCN1C(=O)Nc1ccccc1C(=O)OC (stereo unspecified),"inconclusive: 2.82 µM [inhibitor, partial curve, poor fit]",

Compound,Potency,"activity change, negative = inhibition"
Cc1cc(OCc2nn[nH]n2)c2c(C)c(Cc3ccccc3)c(=O)oc2c1,,inactive: 34.4% [at 57.1 µM]
COc1ccc(OC)c(NC(=O)C2CCN(S(=O)(=O)c3ccc4c(c3)CCCC(=O)N4)CC2)c1,,inactive: 7.57%
CCOC(=O)c1ccc(NC(=O)CCC(=O)N2Cc3ccccc3Oc3ncccc32)cc1,,inactive: -8.31%
O=C(CSc1ccc(-c2ccco2)nn1)N1CCCCCC1,"inconclusive: 31.6 µM [inhibitor, single point]",
CCOC(=O)c1ccc(N2C(=O)c3n[nH]c(-c4ccco4)c3C2c2ccc(O)c(OCC)c2)cc1 (stereo unspecified),"inconclusive: 3.16 µM [inhibitor, partial curve, poor fit]",
CCOC(=O)C1CCN(C(c2cccc(F)c2)c2c(O)cc(C)n(Cc3ccco3)c2=O)CC1 (stereo unspecified),"inconclusive: 20 µM [inhibitor, partial curve, poor fit]",
Nc1nc(-c2ccco2)nn1C(=O)c1cccnc1,"inconclusive: 31.6 µM [inhibitor, partial curve, poor fit]",
Cc1cccc(C(=O)Nc2scc(CC(C)C)c2C(=O)O)c1,"inconclusive: 89.1 µM [inhibitor, single point]",
CCC(=O)Nc1cccc(C(=O)/C=C/c2ccccc2)c1,"inconclusive: 79.4 µM [inhibitor, single point]",
N#CC(=C=[N-])c1nc2ccccc2nc1-[n+]1cccc(NC(=O)c2cccs2)c1,"inconclusive: 50.1 µM [inhibitor, partial curve, poor fit]",
COc1ccc(C(=O)N/N=C(\C)CC(=O)N2CCN(C=O)CC2)cc1,"inconclusive: 79.4 µM [inhibitor, single point]",
CC(=O)/C(=C/c1ccccc1)C(=O)Nc1ccccc1C,active: 25.1 µM,
CCOC(=O)CC1(NC(=O)C2CCC(=O)N(Cc3ccccc3F)C2)CCCCC1 (stereo unspecified),"inconclusive: 79.4 µM [inhibitor, single point]",
CC(=O)Nc1nc2n(n1)C(c1ccc(F)cc1)C=C(c1ccccc1)N2 (stereo unspecified),"inconclusive: 63.1 µM [inhibitor, single point]",
CCCOc1ccc(/C=N/Nc2ccccc2[N+](=O)[O-])c(O)c1,,inactive: -11.7%
O/N=C(/C[n+]1csc2ccccc21)c1ccccc1,,inactive: 20.6%
CCN(CC)C(=O)CSc1nc2c(sc(=S)n2-c2ccccc2)c(=O)n1Cc1ccco1,"inconclusive: 17.8 µM [inhibitor, full curve]",
Cc1cc(OC(C)C(=O)NCCCN2CCOCC2)c2c(C)cc(=O)oc2c1 (stereo unspecified),"inconclusive: 79.4 µM [inhibitor, single point]",
Cc1nc(-c2ccccc2)sc1-c1ccc(SCC(=O)Nc2cccc(C(F)(F)F)c2)nn1,"inconclusive: 89.1 µM [inhibitor, single point]",
Cc1ccccc1N1CCN(C2CCCN(C(=O)c3noc4c3CCCC4)C2)CC1 (stereo unspecified),"inconclusive: 89.1 µM [inhibitor, partial curve, poor fit]",
COn1c2c(c3c4nonc4ccc31)CCCC2,"inconclusive: 3.55 µM [inhibitor, partial curve, poor fit]",
N#Cc1c(-c2cccnc2)c2c([nH]c1=S)CCCC2,"inconclusive: 5.62 µM [inhibitor, full curve, poor fit]",

Compound,Potency,"activity change, negative = inhibition"
CCN(CC)S(=O)(=O)c1ccc(S(=O)(=O)N(CC(=O)Nc2ccccc2)Cc2ccco2)cc1,"inconclusive: 22.4 µM [inhibitor, partial curve]",
C=CS(=O)(=O)c1ccc(Oc2ccc(S(=O)(=O)C=C)cc2)cc1,active: 5.01 µM,
CC(=O)Oc1oc(-c2ccccc2)nc1C=Nc1ccccc1,active: 39.8 µM,
CCC(CC)C1=NN2C(=N)/C(=C/c3ccc(OC(=O)c4ccco4)cc3)C(=O)N=C2S1,"inconclusive: 79.4 µM [inhibitor, single point]",
COc1ccc(NC(=S)NNC(=O)COc2ccc(Cl)cc2Cl)cc1,"inconclusive: 15.8 µM [inhibitor, partial curve]",
O=C(Nc1cccnc1)c1cc(-c2cc(Cl)ccc2O)n[nH]1,,inactive: 10.5%
CN(C)c1ccc(N=Cc2ccncc2)cc1,"inconclusive: 20 µM [inhibitor, full curve]",
CC(C)Cn1cc(NC(=O)Nc2cccc(C(F)(F)F)c2)c2ccccc2c1=O,"inconclusive: 25.1 µM [inhibitor, partial curve, poor fit]",
Cn1cccc1CC(=O)N/N=C/C=C/c1ccco1,active: 50.1 µM,
C=CCOc1ccc(Br)cc1/C=C1/SC(=Nc2ccc(C(=O)O)cc2)NC1=O,"inconclusive: 14.1 µM [inhibitor, partial curve, poor fit]",
O=C(C1CCN(S(=O)(=O)c2cnc[nH]2)CC1)N1CCN(Cc2ccc3c(c2)OCO3)CC1,"inconclusive: 35.5 µM [inhibitor, single point]",
O=C1c2nc3cc(-c4ccco4)[nH]n3c(=O)c2CN1C1CCCCC1,"inconclusive: 12.6 µM [inhibitor, single point]",
Cc1ccc(N=Nc2c(N)[nH]n3c(=O)cc(C)nc23)cc1,,inactive: -18.2%
COc1ccc(OC)c(-n2c(-c3ccn[nH]3)n[nH]c2=S)c1,"inconclusive: 44.7 µM [inhibitor, partial curve, poor fit]",
Cc1ccc(C(=O)NC(=S)Nc2ccccc2C)cc1,"inconclusive: 44.7 µM [inhibitor, partial curve]",
O=C1/C(=C/c2ccncc2)CCC/C1=C\c1ccncc1,"inconclusive: 31.6 µM [inhibitor, partial curve, poor fit]",
CC1CCCCC1NC(=S)NC(=O)c1ccccc1Cl (stereo unspecified),"inconclusive: 39.8 µM [inhibitor, partial curve]",
COc1ccc(C(C)=O)cc1COc1cccnc1[N+](=O)[O-],,inactive: 13.5% [at 0.0914 µM]
Cc1ccc(C(=O)Nc2ncc(Cc3ccc(F)cc3)s2)o1,,inactive: -5.34%
Cc1ccc(S(=O)(=O)/N=C2/NC(=O)/C(=C/c3ccc(Br)o3)S2)cc1,active: 28.2 µM,
CCOc1ccccc1-c1nc(CN2CCN(C(=O)c3ccco3)CC2)c(C)o1,"inconclusive: 56.2 µM [inhibitor, single point]",
CCOc1ccccc1/C=N/n1c(C2CCCCC2)n[nH]c1=S,"inconclusive: 17.8 µM [inhibitor, partial curve]",
